{"source": "the supplement of paper PMC11417369", "note": "± gives the standard deviation of the averaged measurements. Some of the results follow.", "data": [{"system": "PfAP2-G AP2 domain (GST-tagged)", "experiment": "gcPBM binding intensity (ln(normalized median fluorescence intensity)); higher = stronger DNA binding", "in_short": "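An Agilent 4 × 180k array carrying primer-extended double-stranded 36-bp intergenic genomic probes and negative controls received GST-tagged P. falciparum DNA-binding domains expressed in E. coli, about 25 μg on average, for 1 h. The binding buffer contained 1× PBS, 1% milk, 0.2 mg/ml BSA, 0.5% salmon testes DNA and 0.03% Triton X-100. Binding intensity is the top Masliner-normalised natural-log median intensity across replicate spots of either probe orientation, read after Alexa488 anti-GST antibody staining and a 488 nm scan.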", "values": [{"sequence": "AAGAAGAAATGCTTTGCATGCAAATTTTATGCCAAC [TGCATGCA_site721]", "gcPBM binding intensity (ln)": "9.68 ± 0.26"}, {"sequence": "AACAATTGGAATAACGCATGCATTTATAATATAGAA [TGCATGCA_site298]", "gcPBM binding intensity (ln)": "9.71 ± 0.35"}, {"sequence": "TAAAATAATTTATGCATACACACATATATATATATA [CACACA_site4021]", "gcPBM binding intensity (ln)": "10 ± 0.3"}, {"sequence": "TGAATATTCCTATGCACACAAATTAAAATACATAAT [CACACA_site4403]", "gcPBM binding intensity (ln)": "10.2 ± 0.27"}, {"sequence": "ACAAATTTATACTTAAAACACACGTAATCATTTATA [CACACA_site1636]", "gcPBM binding intensity (ln)": "9.985 ± 0.035"}, {"sequence": "ATAGCTTTTATTTAAAGTACAAAAAGGATGTTGAAA [XGTACX_site3810]", "gcPBM binding intensity (ln)": "11 ± 0.61"}, {"sequence": "ATATATATTTATATTTGTACGAATTAAAATTTTTTA [XGTACX_site5200]", "gcPBM binding intensity (ln)": "11 ± 0.66"}, {"sequence": "ATTTAAAACAAAAGTAGTACGTCTAATAAATTCAAC [XGTACX_site4344]", "gcPBM binding intensity (ln)": "11.6 ± 1.1"}, {"sequence": "TTATCAATAAAATGCACACACTGTAATATTATTAAA [CACACA_site6055]", "gcPBM binding intensity (ln)": "9.99 ± 0.16"}, {"sequence": "AGACAAAATGTTTGAAGTACTTTTTATCAAATTAAA [XGTACX_site8885]", "gcPBM binding intensity (ln)": "11.2 ± 0.69"}, {"sequence": "AAAAAAAAAAAACACACACACACACCCATACATACA [CACACA_site707]", "gcPBM binding intensity (ln)": "10.4 ± 0.36"}, {"sequence": "TGATTTTTTCATATTCTACACACGTGAACAAATGTG [CACACA_site8987]", "gcPBM binding intensity (ln)": "10.6 ± 0.26"}, {"sequence": "TTAATTATTATATAAGTGCAATAATAAAAAGTTGTA [GTGCAC_site9552]", "gcPBM binding intensity (ln)": "10.1 ± 0.3"}, {"sequence": "TTGTTAATAAATAAATAAATAAATATATTTATATAT [GTGCAC_negctrl_site271]", "gcPBM binding intensity (ln)": "9.78 ± 0.45"}, {"sequence": "AATATATATATATGTACACACTCCAATACATATACA [CACACA_site2682]", "gcPBM binding intensity (ln)": "11.3 ± 0.83"}, {"sequence": "AATTTATTTTTTTAATGTACATATGGTATAAATATA [XGTACX_site8012]", "gcPBM binding intensity (ln)": "11.3 ± 0.79"}, {"sequence": "TGTTGATTTCTCAAATGTACTTTACTTTTCTTCAGA [XGTACX_site7916]", "gcPBM binding intensity (ln)": "11 ± 0.64"}, {"sequence": "TTTTTTTTTTTTAATTGTACATTTTATATAAACTTT [XGTACX_site6806]", "gcPBM binding intensity (ln)": "10.8 ± 0.75"}, {"sequence": "TCTTTTTAAATTACTATAATACATTCATAAATTATA [GTGCAC_negctrl_site448]", "gcPBM binding intensity (ln)": "9.89 ± 0.071"}, {"sequence": "TTAAGAATATCTTAGAGTACATTTTATCATCTTAAA [XGTACX_site8298]", "gcPBM binding intensity (ln)": "11 ± 0.68"}, {"sequence": "AGGGAATAAGTAAGGTGTACATAATTATGTTACTTT [XGTACX_site6152]", "gcPBM binding intensity (ln)": "11.5 ± 0.74"}, {"sequence": "TTTTTTTATTTTATAAAGCAAAAATAAGAATGAAAT [XGTACX_negctrl_site270]", "gcPBM binding intensity (ln)": "10 ± 0.25"}, {"sequence": "TATATGTATGTATGTACACACAAAAAATGGAATATA [CACACA_site3717]", "gcPBM binding intensity (ln)": "11.6 ± 1"}, {"sequence": "TTTTGATTAAGTGAATTTTTTTATTTATATAAATAT [TGCATGCA_negctrl_site479]", "gcPBM binding intensity (ln)": "9.7 ± 0.17"}, {"sequence": "AATATAAATACTCCTACACACATATAAATATAAATA [CACACA_site7419]", "gcPBM binding intensity (ln)": "10.3 ± 0.35"}, {"sequence": "TCCACATTAATGTAATGTACAAAATTAGAAAATAAA [XGTACX_site6287]", "gcPBM binding intensity (ln)": "10.7 ± 0.42"}, {"sequence": "AATTAGCTCAAAGGTTGTACAAATATATTTTAATGG [XGTACX_site2352]", "gcPBM binding intensity (ln)": "11.2 ± 0.64"}, {"sequence": "TTTTAAACACCAATCAAAAAAATATAAATATAAATA [TGCATGCA_negctrl_site552]", "gcPBM binding intensity (ln)": "9.74 ± 0.071"}, {"sequence": "CATACATACATATATACACACATATATAATAATATA [CACACA_site2678]", "gcPBM binding intensity (ln)": "10.1 ± 0.2"}, {"sequence": "TACGAATTAAAAAAGAGTACAAATAAAATATCTACA [XGTACX_site7412]", "gcPBM binding intensity (ln)": "11.3 ± 0.84"}, {"sequence": "AAAAAAAATAATTTGCGTACATAAAAATTTATAGGA [XGTACX_site3016]", "gcPBM binding intensity (ln)": "11.6 ± 0.94"}, {"sequence": "AAATTTTTTTTTGTCATATGATGTTTGAACCCAAAT [CACACA_negctrl_site1659]", "gcPBM binding intensity (ln)": "10.3 ± 0.42"}, {"sequence": "TCCGTATATTTATACGCATGCATTATGAACATTGTT [TGCATGCA_site613]", "gcPBM binding intensity (ln)": "10.07 ± 0.071"}, {"sequence": "TTACATTGTAAAAAGTGTACATATAATTTAATTAAT [XGTACX_site1834]", "gcPBM binding intensity (ln)": "11.4 ± 0.98"}, {"sequence": "ATGTAGACTGAAACCACACACACATATATATATATA [CACACA_site606]", "gcPBM binding intensity (ln)": "10.3 ± 0.23"}, {"sequence": "GGATTACAAATAGGTTGTACGTTTTTTTTTTTTTCT [XGTACX_site3605]", "gcPBM binding intensity (ln)": "11.4 ± 0.81"}, {"sequence": "AATTTTTTAAATGTGTGTACATATTATTTAAATAAT [XGTACX_site5967]", "gcPBM binding intensity (ln)": "11.5 ± 0.73"}, {"sequence": "TTTTTTACAATTAACACACTCAAAAATAATATTAAA [CACACA_site5198]", "gcPBM binding intensity (ln)": "10.1 ± 0.14"}, {"sequence": "AATCACAACGAACACACACACAAAAAAAAAAAAAAA [CACACA_site6790]", "gcPBM binding intensity (ln)": "10.1 ± 0.57"}, {"sequence": "TATATTATATATATATGTACATATGGCAAAACATTA [XGTACX_site7958]", "gcPBM binding intensity (ln)": "11.2 ± 0.83"}, {"sequence": "AAAAAAAAAAAAAAATGTACCCATAAAATAAGCATT [XGTACX_site8576]", "gcPBM binding intensity (ln)": "11.4 ± 0.94"}, {"sequence": "ATATATATATCTAATTGTACATATTTTATAAATAAG [XGTACX_site4840]", "gcPBM binding intensity (ln)": "11 ± 0.52"}, {"sequence": "ATAAATATATTTATATGTACATATAATTTTACATAT [XGTACX_site5440]", "gcPBM binding intensity (ln)": "11.4 ± 0.67"}, {"sequence": "TATAATCTAACATAATGTACATGTATATGCACTTTA [XGTACX_site369]", "gcPBM binding intensity (ln)": "10.8 ± 0.45"}, {"sequence": "AAAAATTAAATGTACACACACCTTAAACAATGTCAT [CACACA_site6958]", "gcPBM binding intensity (ln)": "11.4 ± 0.98"}]}]}
